In PubChem BioAssay AID1508642 (National Center for Advancing Translational Sciences (NCATS), 2021):
About 200 (0.47%) of roughly 43,000 compounds were called active. Another 12% or so got no clear call; they are omitted. Calls come from the whole dose curve; as a rule, active = well fitted cell-killing curve with a large enough effect; inconclusive = small, poorly fitted or top-dose-only effect, or effect the other way; inactive = flat fitted curve, though single readings scatter. This is one part of the list.

experiment: Cell viability qHTS assay in S16 Pmp22-F2sN cells; settings: S16 Pmp22-F2sN Schwann cells (luciferase reporters placed in the Pmp22 gene) viability, CellTiter-Glo, 24 h; series mostly up to 57.5 µM; activity change, negative = cytotoxicity: at the top concentration; note: nearly all actives have a fitted effect of over 65% in size
How it was run: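 CellTiter-Glo counter-screen, qHTS, 1536-well. Cells: S16(c9) Pmp22-F2sN, 500-1,000/well in DMEM + 10% FBS. Cpd 23 nL pin transfer, 24 h, 37C/5% CO2. Read: luminescence, CCD imager.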
% is set by controls: 0 for no effect and ±100 for the full control effect.

Row | SMILES | activity change, negative = cytotoxicity
1 | COc1ccc(-c2oc3ncn4nc(COc5cccc(C)c5C)nc4c3c2-c2ccc(OC)cc2)cc1 | inactive: 1.67%
2 | O=C1c2oc3ccccc3c(=O)c2C(c2cccc(O)c2)N1c1nncs1 (stereo unspecified) | inactive: 6.16%
3 | CCOC(=O)c1c(-c2ccc(C)cc2)csc1NC(=O)c1cc(=O)c2cc(C)ccc2o1 | inactive: -8.26%
4 | O=C(Cn1c(=O)nc(-c2ccccc2)c2ccccc21)NCCc1ccccc1 | inactive: 3.81%
5 | CCc1ccccc1N(CC)C(=O)c1c(C)oc2ncn(C)c(=O)c12 | inactive: 5.6%
6 | Cc1ccc(-c2nc(S(=O)(=O)c3ccccc3)c(N3CCN(c4ccccc4)CC3)o2)cc1 | inactive: 3.82%
7 | Cc1ccc2nc(COc3ccccc3NC(=O)COc3ccc(F)cc3)cc(=O)n2c1 | inactive: -0.439%
8 | CCc1ccccc1NS(=O)(=O)c1ccc2[nH]cc(C(=O)N(CC(C)C)CC(C)C)c(=O)c2c1 | inactive: -0.083%
9 | CCc1ccc2nc(N(CCN(CC)CC)C(=O)c3cccs3)sc2c1 | inactive: -5.73%
10 | COc1ccc(NC(=O)C2CCN(S(=O)(=O)c3ccc4c(c3)CCCC(=O)N4)CC2)cc1OC | inactive: -5.23%
11 | O=C(Nc1ccccc1C(=O)OCc1cc(=O)n2c3c(sc2n1)CCCC3)c1ccc(F)cc1 | inactive: -16%
12 | COc1ccc(-c2nc(SCC(=O)Nc3ccc4c(c3)OCCO4)c(-c3ccc(F)cc3)[nH]2)cc1 | inactive: -25.3%
13 | Cc1cccc(C(C)C)c1NC(=O)Cn1c(=O)oc2cc(S(=O)(=O)N3CCCC3)ccc21 | inactive: 0.312%
14 | COC(=O)c1ccc(Cl)cc1NC(=O)NCCc1c(C)nn(C)c1C | inactive: -4.54%
15 | Cc1c(C(=O)N2CCOCC2)oc2c1-c1nn(CC(=O)NCc3cccc(F)c3)cc1CC2 | inactive: 4.89%
16 | CC(C)c1ccc(NC(=O)Cn2c(=O)n(CC3CCC(C(=O)NCCc4ccccc4)CC3)c(=O)c3ccccc32)cc1 (stereo unspecified) | inactive: 18.2%
17 | Cc1ccc(-n2c(=O)c3cccnc3n2CC(=O)Nc2cc(C)cc(C)c2)cc1 | inactive: -5.43%
18 | COc1ccccc1CNC(=O)Cn1c(=O)nc(-c2ccccc2F)c2cc(Cl)ccc21 | inactive: 1.75%
19 | CCOC(=O)c1cccc(NC(=O)CCS(=O)(=O)c2ccc3c(c2)CC(=O)N3C)c1 | inactive: 10.8%
20 | Cc1ccc(S(=O)(=O)C2(C(=O)Nc3ccc(Cl)c(C(F)(F)F)c3)CC2)cc1 | inactive: -16.5%
21 | Cc1cccc(N2CCN(C(=O)CS(=O)(=O)c3cccc4nsnc34)CC2)c1C | inactive: 2.86%
22 | Cc1ccc(Cl)cc1N1CCN(C(=O)C2CCC(CNS(=O)(=O)c3cccs3)CC2)CC1 (stereo unspecified) | inactive: -20.5%
23 | Cc1ccc(CNc2ccc(-c3nc(-c4ccncc4)no3)cc2[N+](=O)[O-])cc1 | inactive: 12.4%
24 | COc1ccc(-n2ccnc2SCC(=O)Nc2ccc3c(c2)OCO3)cc1 | inactive: 1%

Row | SMILES | activity change, negative = cytotoxicity
25 | COC(=O)CN1C(=O)C(C)(C)c2cc(S(=O)(=O)Nc3ccc(Br)cc3F)ccc21 | inactive: 4.71%
26 | Cc1[nH]c2ccc(Br)cc2c1CCNC(=O)c1cc2ccccc2oc1=O | inactive: -5.39%
27 | CCN(CC)c1ccc(NC(=O)CN2CCN(c3ccccc3F)CC2)cc1 | inactive: 0.0073%
28 | O=S(=O)(NCCS(=O)(=O)N1CCN(c2cccc(Cl)c2)CC1)c1ccc(F)cc1 | inactive: -1.99%
29 | CCOc1ccc(C2=NC(c3cccs3)=Nc3ccc(CC)cc3N2)cc1OCC | inactive: -3.18%
30 | O=C(NCc1ccccc1F)c1sc2ncccc2c1-n1cccc1 | inactive: -12.3%
31 | CCn1cc2nc(SCC(=O)Nc3ccc(C)cc3)n(Cc3ccc(C)cc3)c(=O)c2n1 | inactive: 3.31%
32 | Cc1cccc(NC(=O)CN2C(=O)C(c3ccccc3)=NC23CCC(C)CC3)c1 (stereo unspecified) | inactive: -3.31%
33 | CC(=O)c1cccc(-n2c(=O)c3c4c(sc3n(Cc3cccc(C)c3)c2=O)CN(C(C)=O)CC4)c1 | inactive: 0.866%
34 | Cc1cc(C)n(CCc2nc3c4ccccc4nc(N4CCN(c5cccc(C)c5C)CC4)n3n2)n1 | inactive: 3.1%
35 | CC(=O)N1CCCc2cc(S(=O)(=O)N3CCCC(C(=O)Nc4ccc(C)cc4C)C3)ccc21 (stereo unspecified) | inactive: -0.328%
36 | COc1ccc(-n2nc3cc(C)c(NC(=O)c4ccc(-c5ccc(Br)cc5)o4)cc3n2)cc1 | inactive: 5.93%
37 | CSc1ncc(Cl)c(C(=O)Nc2ccc(S(=O)(=O)Nc3nccc(C)n3)cc2)n1 | inactive: -16.8%
38 | CCCCN(C)CCCNC(=O)CN1N=C(c2ccc(OC)cc2)CCC1=O | inactive: -1.39%
39 | CC(=O)c1ccc(NC(=O)CCc2c(C)nc3c(c2C)c(=O)n(C)c(=O)n3C)cc1 | inactive: 1.31%
40 | Cc1c2cnn(CC(=O)N3CCN(c4ccccc4)CC3)c(=O)c2c(C)n1Cc1ccccc1Cl | inactive: 7.17%
41 | Cc1ccc(CCNC(=O)c2ccc3[nH]c(C)c(C)c3c2)cc1 | inactive: -4.07%
42 | COc1ccc(CCNC(=O)c2cc3n(n2)CCCN(Cc2ccc(C)cc2)C3=O)cc1OC | inactive: -13.6%
43 | Cc1ccc(-c2onc(C)c2C)cc1S(=O)(=O)NCc1ccc(N(C)C)cc1 | inactive: -0.741%
44 | CCc1ccc(NC(=O)Cn2c(=O)n(CCCCC(=O)NCc3ccccc3Cl)c(=O)c3ccccc32)cc1 | inactive: 16.8%
45 | Cc1cc(C)c(S(=O)(=O)NCC(c2ccco2)N2CCOCC2)c(C)c1 (stereo unspecified) | inactive: 0.042%
46 | CCc1nc2c(cnn2-c2ccc(C)cc2)c(=O)n1Cc1ccccc1 | inactive: 22.6%
47 | CCOC(=O)N1CCc2c(sc3c2c(=O)n(Cc2ccccc2)c(=O)n3Cc2cccc(C)c2)C1 | inactive: 19.6%
48 | CCn1c(=O)cc(OCC(=O)NCc2ccccc2OC)c2ccccc21 | inactive: -25%

Row | SMILES | activity change, negative = cytotoxicity
49 | COc1ccc(NC(=O)c2cc(C)nc3c2c(C)nn3-c2ccc(C)cc2)cc1OC | inactive: 2.21%
50 | C=CCC(CC=C)(CNC(=O)C(=O)Nc1ccc(C)cc1)c1ccccc1 | inactive: -0.997%
51 | COc1cccc(Cn2c(=O)n(-c3cccc(Cl)c3)c(=O)c3c4c(sc32)CN(C(C)=O)CC4)c1 | inactive: -22.7%
52 | CCOc1cc(OCC)cc(C(=O)Nc2cccc(-c3nc4ccccc4[nH]3)c2)c1 | inactive: -15.7%
53 | COc1ccccc1-c1nnc(C2CCN(C(=O)c3cccc(C)c3)CC2)o1 | inactive: 0.948%
54 | O=C(CSc1cn(CC(=O)N2CCCCC2)c2ccccc12)NCc1ccccc1 | inactive: -8.4%
55 | COCc1cc(C)nc2c1C(=O)NC(c1ccc(C)cc1)N2Cc1ccccc1 (stereo unspecified) | inactive: 6.91%
56 | CCCN1C(=O)c2[nH]nc(-c3ccccc3)c2C1c1cccc(O)c1 (stereo unspecified) | inactive: -12%
57 | CCOc1ccc(-c2nnc(SCC(=O)NCc3ccccc3Cl)o2)cc1 | inactive: 3.74%
58 | CCN(CC)CCNC(=O)C(=O)NCC(c1ccc2c(c1)OCO2)N1CCOCC1 (stereo unspecified) | inactive: -0.494%
59 | CCOc1ccc(S(=O)(=O)N2CCN(c3cccc(C(F)(F)F)c3)CC2)cc1OCC | inactive: -1.36%
60 | COc1ccccc1NC(=O)CSC1=Nc2ccccc2C2=NC(Cc3ccccc3)C(=O)N12 (stereo unspecified) | inactive: -5.29%
61 | COc1ccc2c(c1)CCc1sc(NC(=O)c3cccc(Br)c3)nc1-2 | inactive: 3.62%
62 | Cc1ccc(NC(=O)c2oc3ccccc3c2NC(=O)Cc2ccccc2)cc1 | inactive: 16.4%
63 | CCCOc1cccc(C(=O)N(Cc2sccc2C)C2CCS(=O)(=O)C2)c1 (stereo unspecified) | inactive: -1.05%
64 | COc1ccc(CNC(=O)c2cnc(N(C)C)nc2)cc1 | inactive: 2.08%
65 | CC(C)OCCCNC(=O)CN1C(=O)c2cccnc2Sc2ccccc21 | inactive: 1.57%
66 | Cc1cc(Cl)ccc1OCC(=O)N(Cc1sccc1C)C1CCS(=O)(=O)C1 (stereo unspecified) | inactive: 4.51%
67 | CCC(=O)Nc1ccc2nc(SCCOc3ccc(C)cc3OC)sc2c1 | inactive: 18.1%
68 | CC(=O)c1ccc(NC(=O)CSc2nc(-c3ccc(C)cc3)nc3c2c(=O)n(C)c(=O)n3C)cc1 | inactive: 0.704%
69 | CCn1c(=O)cc(OCC(=O)N2CCN(c3ccc(C)cc3)C(C)C2)c2ccccc21 (stereo unspecified) | inactive: -3.37%
70 | CCN(CC)CCNC(=O)CN1N=C(c2ccc(OC)cc2)CCC1=O | inactive: 9.76%
71 | Cc1cccn2cc(-c3cccc(NC(=O)C(C)C)c3)nc12 | inactive: -6.95%
72 | O=C(Cn1cc(SCc2c(F)cccc2Cl)c2ccccc21)N1CCCCC1 | inactive: -0.252%

Row | SMILES | activity change, negative = cytotoxicity
73 | Cn1c(=O)n(Cc2ccccc2)c(=O)c2c1nc1n2CCN1c1ccccc1 | inactive: 7.32%
74 | COc1cccc2c(C)cc3nnc(SCC(=O)Nc4ccc(C)cc4)n3c12 | inactive: 1.52%
75 | COCCNC(=O)CN1C(=O)c2cccnc2Sc2ccccc21 | inactive: 2.1%
76 | O=C(Cn1ncc2c1-c1ccccc1OC2)N1CCN(c2ccccc2)CC1 | inactive: 18.3%
77 | O=C(c1ccc2c(c1)OCO2)c1cn(Cc2ccc(Cl)cc2)c2ccc(F)cc2c1=O | inactive: -11.1%
78 | Cc1ccc(-c2cn3cccnc3n2)cc1NC(=O)Nc1ccc(F)cc1 | inactive: 2.46%
79 | CC(C)(C)OC(=O)N1CCC(c2c(C(=O)N3CCN(c4ccccn4)CC3)cnn2-c2ccc(F)cc2)CC1 | inactive: 0.114%
80 | COc1ccc2c(c1)c(=O)c(S(=O)(=O)c1ccc(F)cc1)cn2Cc1ccccc1Cl | inactive: -16.2%
81 | CCCCOc1ccc(C(=O)N2CCCCC2CCN2CCOCC2)cc1 (stereo unspecified) | inactive: 22%
82 | CC1CCC(NC(=O)c2ccc(CS(=O)(=O)c3ccc(Cl)cc3)o2)CC1 (stereo unspecified) | inactive: -2.17%
83 | CCCCNC(=O)C(CC)Sc1nc2ccccc2c(=O)n1Cc1ccco1 (stereo unspecified) | inactive: -27.4%
84 | COCCCNC(=O)Cn1c(=O)n(-c2ccc(C)c(C)c2)c(=O)c2c3c(sc21)CCCCC3 | inactive: 5.41%
85 | O=C(COc1ccc(F)cc1)Nc1nnc(S(=O)(=O)N2CCCC2)s1 | inactive: 0.167%
86 | COc1ccc(NC(=O)c2nnn(Cc3nc(-c4cc(OC)c(OC)c(OC)c4)oc3C)c2C)cc1Cl | inactive: 8.66%
87 | COc1ccccc1CNC(=O)c1ccc2[nH]c(C)c(C)c2c1 | inactive: 4.54%
88 | COc1ccc(OC)c(NS(=O)(=O)c2ccc(-n3cccn3)cc2)c1 | inactive: -0.766%
89 | Cc1cccc(N(C)S(=O)(=O)c2nnc(NC(=O)c3cccs3)s2)c1 | inactive: 0.862%
90 | Cc1ccc(C(=O)c2sc(Nc3ccccc3)c(S(=O)(=O)c3ccccc3)c2N)c(C)c1 | inactive: -3.42%
91 | CCOC(=O)c1cccc(NC(=O)Cn2c(=O)c3cccn3c3ccccc32)c1 | inactive: 8.36%
92 | Cc1cc(C)n2nc(CNC(=O)c3c(F)cccc3F)nc2n1 | inactive: -0.196%
93 | COCCNC(=O)c1sc2ncccc2c1-n1c(C)ccc1C | inactive: 5.04%
94 | CCC(C)n1c(=O)c2sccc2n2c(CCCC(=O)NCc3ccccc3Cl)nnc12 (stereo unspecified) | inactive: 9.54%
95 | COCCn1c(CNC(=O)c2cccc(C)c2)nc2cccnc21 | inactive: 11.1%
96 | COCCNC(=O)C1CCN(Cc2cc3ccccc3n2Cc2ccc(C)cc2)CC1 | inactive: -5.22%
